The assay deals with rat ileal tissues.

The record followed here is patent publication US8372973B2, “Prokineticin 1 receptor antagonists” (Janssen Pharmaceutica N.V., priority 2005, dated 2013).

The EC50 is the concentration at which the effect is half-maximal.

B1: PK1: Recombinant human prokineticin-1 from HEK 293 cells, FLAG epitope cleaved; mixture of full-length ligand and four C-terminal residue truncated product (protein)
chain: AVITGACERDVQCGAGTCCAISLWLRGLRMCTPLGREGEECHPGSHKVPFFRKRKHHTCPCLPNLLCSRFPDGRYRCSMDLKNINF
modifications: mixture with C-terminal truncated product; Recombinant N-terminal FLAG-tagged human prokineticin-1 after enterokinase cleavage of Flag-tag
With B1, the “effect on tissue conductance (G)” value was “no significant effect”. Further, under “read-out: EC50 of PK1-evoked increases in Isc, cumulative concentration-response, basolateral addition”, the EC50 is roughly 8.2 nM.
